From the supplement of paper PMC3334620
Whole data set: some 33,000 sequences, median “E-score (-0.5 to 0.5)” near -0.032, cut for the highest 2% near 0.36. This is one part of the list.

These sequences were tested against T1, Sko1 (UniProt Q02100) (assay: PBM E-score (8-mer binding enrichment) (E-score (-0.5 to 0.5)); higher = stronger / more preferred TF binding; most listed sequences are background and not binding sites). Details: protein concentration: 200 nM; construct: GST-full length.
T1 sequence: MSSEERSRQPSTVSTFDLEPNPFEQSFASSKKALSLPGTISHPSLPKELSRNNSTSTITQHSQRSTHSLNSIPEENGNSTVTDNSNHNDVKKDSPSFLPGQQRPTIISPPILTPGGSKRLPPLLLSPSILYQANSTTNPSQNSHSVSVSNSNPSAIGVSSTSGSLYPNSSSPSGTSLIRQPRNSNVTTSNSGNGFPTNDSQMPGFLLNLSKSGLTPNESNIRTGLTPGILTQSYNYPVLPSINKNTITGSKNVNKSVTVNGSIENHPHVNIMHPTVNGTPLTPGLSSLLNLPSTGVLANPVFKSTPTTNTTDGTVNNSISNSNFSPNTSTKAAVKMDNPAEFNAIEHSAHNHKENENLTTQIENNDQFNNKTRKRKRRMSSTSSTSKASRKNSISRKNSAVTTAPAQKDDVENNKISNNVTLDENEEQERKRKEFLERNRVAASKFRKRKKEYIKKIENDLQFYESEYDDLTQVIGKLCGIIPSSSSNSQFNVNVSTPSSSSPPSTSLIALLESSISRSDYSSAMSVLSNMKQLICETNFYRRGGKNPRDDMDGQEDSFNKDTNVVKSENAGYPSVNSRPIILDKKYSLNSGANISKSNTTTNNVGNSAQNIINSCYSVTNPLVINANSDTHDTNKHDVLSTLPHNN
How it was run: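 The E-score, a modified Wilcoxon-Mann-Whitney statistic, was computed by the Universal PBM Analysis Suite for every ungapped eight-base word pooled with its reverse complement. Scans behind it were normalised with masliner after bound GST-tagged yeast transcription factors were detected with fluorescent anti-GST. The proteins, at about 100-200 nM, had been applied to universal all-10-mer Agilent arrays made double-stranded by primer extension.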

| Sequence | PBM E-score |
| --- | --- |
| GGATCCGA | -0.184 |
| GGCTACCC | -0.329 |
| GTTATGCA | 0.0767 |
| ATTATCTA | 0.225 |
| AAAAAACA | 0.22 |
| ACCCGGAC | -0.152 |
| GACATGTC | 0.175 |
| GAAGGCGA | -0.268 |
| ATCATACC | 0.171 |
| AAAAGAGC | -0.00335 |
| CGTAACTA | 0.381 |
| ATCGACAT | 0.166 |
| CGGTTTTC | -0.0282 |
| ATGTAGGA | -0.0513 |
| AGTATATC | -0.0108 |
| CGTTCGGC | -0.211 |
| CGCATTAC | 0.15 |
| GCTGCACC | -0.318 |
| CCCGGAAC | -0.267 |
| AACTGTAA | 0.203 |
| GAGGCCGC | -0.229 |
| CTACCATC | -0.303 |

| Sequence | PBM E-score |
| --- | --- |
| AGAGCTTA | -0.0935 |
| ATCTCATA | 0.0762 |
| CGGACCCG | -0.216 |
| ACCTCATC | 0.183 |
| CGGGCTTA | -0.0967 |
| GATTACAC | 0.0868 |
| GCAAGGGA | -0.177 |
| ATATTATC | 0.206 |
| ACCTTCAC | -0.0666 |
| AGCGGGTG | -0.163 |
| CATAGCCA | -0.0432 |
| AGTCGCTA | -0.0838 |
| CTAGGCCC | -0.305 |
| CAAGTCCC | -0.233 |
| GTGGGACA | 0.00558 |
| ATCCTATA | 0.0809 |
| ATGTCCAC | 0.116 |
| GACCGTAC | -0.0393 |
| CACTGAAA | 0.165 |
| CGATAATC | -0.025 |
| ACGTCACC | 0.489 |
| ACACCAGG | -0.235 |

| Sequence | PBM E-score |
| --- | --- |
| AAATCAAC | 0.0214 |
| CTCGCTCC | -0.0506 |
| AATACGCA | 0.407 |
| ACGCGGGC | 0.0933 |
| AGGTATTC | 0.0465 |
| GTCGCCTA | -0.174 |
| AGCGAGCA | -0.163 |
| CCACGGAC | -0.349 |
| CGAGCCAA | -0.0335 |
| ACTTGTTG | -0.0653 |
| CTTACCCC | -0.226 |
| CTCAGAAA | 0.0103 |
| AAGAGACG | 0.0839 |
| AGTACGCA | 0.25 |
| CGGCTCTA | -0.173 |
| ACCAATAT | 0.079 |
| AAGGAGTG | -0.199 |
| ATGTACCG | 0.0579 |
| CAGACTAA | -0.116 |
| AACAGCAA | -0.029 |
| ACCTCGCA | -0.113 |
| CGCCAAGC | -0.27 |

| Sequence | PBM E-score |
| --- | --- |
| ACACACGC | 0.145 |
| AACCGTGA | 0.23 |
| GAGACCTC | -0.128 |
| CACGGTGA | 0.0231 |
| CTCGGCGC | -0.127 |
| ACGCAATG | 0.399 |
| CGGCCATA | -0.204 |
| CGCCATAG | 0.108 |
| ATAGCACC | -0.0103 |
| CAGCATAG | 0.0616 |
| CAGAGTCG | -0.107 |
| AGGTCTTA | -0.0637 |
| ATGTAAAG | 0.156 |
| CGTCGGCC | 0.0115 |
| ATGACAAG | 0.0818 |
| GACTTGGC | -0.349 |
| GAGCCTTA | -0.205 |
| GTACGTAC | 0.44 |
| GCAAAACA | 0.0407 |
| GTCATTCA | 0.247 |
| AATACTAT | -0.00985 |
| CCCTCGAC | -0.192 |

| Sequence | PBM E-score |
| --- | --- |
| CGCGGGGA | -0.16 |
| ACCCGTAA | -0.00679 |
| AAGATATA | 0.174 |
| ATCTATCA | 0.185 |
| CTGCAACA | -0.00268 |
| CCTGTGTA | -0.0155 |
| CAGGAGAG | -0.264 |
| AGGGTGTC | -0.0619 |
| CCAAGAGG | -0.256 |
| AGAGCAAA | -0.062 |
| AGAGATAC | -0.00148 |
| ATAGAATA | 0.125 |
| AAGGAGGC | -0.161 |
| CAAGACCA | -0.184 |
| CCCCCTCG | -0.371 |
| GTCTGCTA | 0.0287 |
| ATTATGGG | -0.143 |
| CATGACGC | 0.465 |
| ACTTCTGC | -0.0277 |
| AACATTCG | -0.0594 |
| AATTACCG | 0.163 |
| GTTCAGAA | -0.0502 |
